{"source": "PubChem BioAssay (Tox21)", "key": {"[1]": {"target": "Peroxisome proliferator-activated receptor gamma (Homo sapiens) (UniProt P37231)", "sequence (P37231 whole entry, looked up)": "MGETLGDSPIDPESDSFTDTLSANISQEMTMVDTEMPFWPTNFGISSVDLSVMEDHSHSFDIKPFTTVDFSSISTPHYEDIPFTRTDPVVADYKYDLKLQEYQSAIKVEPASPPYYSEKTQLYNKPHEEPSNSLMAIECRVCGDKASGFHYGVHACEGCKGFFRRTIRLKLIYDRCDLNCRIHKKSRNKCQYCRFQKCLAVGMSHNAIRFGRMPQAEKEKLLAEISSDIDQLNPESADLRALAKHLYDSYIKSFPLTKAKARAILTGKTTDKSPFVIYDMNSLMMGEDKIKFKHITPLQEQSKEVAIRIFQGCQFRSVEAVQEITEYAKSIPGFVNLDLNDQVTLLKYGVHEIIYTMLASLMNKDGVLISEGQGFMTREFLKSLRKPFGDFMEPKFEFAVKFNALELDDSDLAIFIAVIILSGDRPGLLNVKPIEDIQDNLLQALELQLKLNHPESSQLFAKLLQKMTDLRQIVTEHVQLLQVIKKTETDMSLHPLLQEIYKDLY", "assay": "qHTS assay to identify small molecule agonists of the peroxisome proliferator-activated receptor gamma (PPARg) signaling pathway (AID 743094; active = well fitted activation curve with a large enough effect in the signal ratio in the repeat runs, not every such curve was filed as active; inconclusive = weak or mixed curves, or effect the other way; inactive = no such curve, though single readings can be large or run the other way; the % refers to the signal ratio; also: potency is read from the fitted curve at half-maximal effect; as to activation: % is scaled to controls: 0 for no effect and ±100 for the full control effect)", "settings": "HEK293H PPARg-UAS-bla, beta-lactamase FRET ratio, 17 h; activation: at 57 µM (top of the series) unless noted", "outline": "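Reporter activation was scored by fluorescence of cleaved LiveBLAzer B/G substrate (1 h, room temperature) in PPARg-bla HEK293H cells previously treated 17 h at 37C with DMSO-dissolved compounds.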"}, "[2]": {"target": "Peroxisome proliferator-activated receptor gamma (Homo sapiens) (UniProt P37231)", "assay": "qHTS assay to identify small molecule antagonists of the peroxisome proliferator-activated receptor gamma (PPARg) signaling pathway (AID 743191); also: nearly all actives have a fitted effect of over 30% in size; also: potency is read from the fitted curve at half-maximal effect", "settings": "HEK293H PPARg-UAS-bla, beta-lactamase ratio, antagonist, 17 h; ratio activity, negative = inhibition: at 62.6 µM (top of the series) unless noted", "outline": "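GeneBLAzer PPARg UAS-bla HEK293H cells carrying a UAS-driven beta-lactamase reporter were plated at 3000 cells/well, preincubated 5 h at 37C, then given compound for 17 h at 37C; LiveBLAzer B/G FRET substrate was read after 1 h at room temperature.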"}, "[3]": {"assay": "qHTS assay for small molecule agonists of the antioxidant response element (ARE) signaling pathway (AID 743202; active = well fitted activation curve with a large enough effect in the signal ratio in the repeat runs, not every such curve was filed as active; inconclusive = weak or mixed curves, or effect the other way; inactive = no such curve, though single readings can be large or run the other way; the % refers to the signal ratio; also: potency is read from the fitted curve at half-maximal effect)", "settings": "HepG2 ARE-bla reporter, beta-lactamase FRET, 16 h; activation: at 73.3 µM (top of the series) unless noted", "outline": "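Following a 16 h, 37 C exposure of reporter HepG2 cells (ARE-driven beta-lactamase, 2,000 cells/well) to compounds, FRET substrate was applied for 2 h at room temperature and fluorescence intensity recorded.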"}, "[4]": {"assay": "qHTS assay for small molecule activators of the heat shock response signaling pathway - cell viability counter screen (AID 743209; active = well fitted curve in the direction sought with a large enough effect in the repeat runs; inconclusive = weak or mixed curves; inactive = no such curve, though single readings can be large; an effect the other way counts as inactive or inconclusive; also: nearly all actives have a fitted effect of over 50% in size; also: potency is read from the fitted curve at half-maximal effect)", "settings": "HSE-bla HeLa viability, CellTiter-Glo luminescence, 5 h; activity change, negative = cytotoxicity: at 62.6 µM (top of the series) unless noted", "outline": "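Viability of HSE-bla HeLa cells is measured with CellTiter-Glo in the wells already used for the reporter read. Compound exposure lasts 5 h at 37 C, and luminescence is read after 30 min at room temperature.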"}, "[5]": {"assay": "qHTS assay for small molecule activators of the heat shock response signaling pathway (AID 743210; active = well fitted activation curve with a large enough effect in the signal ratio in the repeat runs, with a control signal flat, not every such curve was filed as active; inconclusive = weak or mixed curves; the % refers to the signal ratio; also: potency is read from the fitted curve at half-maximal effect)", "settings": "HeLa HSE-bla reporter, beta-lactamase ratio, 5 h; activation: at 62.6 µM (top of the series) unless noted", "outline": "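Heat shock element–beta-lactamase HeLa reporter cells; qHTS with compounds for 5 h at 37 C; detection by FRET substrate fluorescence after 2.5 h at RT.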"}, "[6]": {"target": "Bile acid receptor (Homo sapiens) (UniProt Q96RI1)", "sequence (Q96RI1 whole entry, looked up)": "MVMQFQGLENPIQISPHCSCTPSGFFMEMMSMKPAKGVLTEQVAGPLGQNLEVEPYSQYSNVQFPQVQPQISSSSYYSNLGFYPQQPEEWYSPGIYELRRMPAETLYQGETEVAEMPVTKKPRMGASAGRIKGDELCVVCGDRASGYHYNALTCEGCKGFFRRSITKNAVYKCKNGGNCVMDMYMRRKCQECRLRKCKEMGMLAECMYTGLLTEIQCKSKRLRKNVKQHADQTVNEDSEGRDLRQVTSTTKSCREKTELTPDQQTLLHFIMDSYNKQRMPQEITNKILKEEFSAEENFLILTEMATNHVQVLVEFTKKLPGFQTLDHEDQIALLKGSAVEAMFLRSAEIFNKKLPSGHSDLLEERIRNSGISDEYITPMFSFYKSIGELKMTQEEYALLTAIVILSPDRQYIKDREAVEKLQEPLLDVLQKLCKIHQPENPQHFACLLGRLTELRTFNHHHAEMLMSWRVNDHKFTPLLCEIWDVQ", "assay": "qHTS assay to identify small molecule agonists of the farnesoid-X-receptor (FXR) signaling pathway (AID 743220; active = well fitted activation curve with a large enough effect in the signal ratio in the repeat runs, not every such curve was filed as active; inconclusive = weak or mixed curves, or effect the other way; the % refers to the signal ratio; also: % is scaled to controls: 0 for no effect and ±100 for the full control effect)", "settings": "HEK293T FXR-UAS-bla, beta-lactamase FRET ratio, 16 h; activation: at 62.6 µM (top of the series) unless noted", "outline": "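FXR-UAS-bla HEK 293T cells carrying a UAS-driven beta-lactamase reporter were plated for 5 h at 37C/5% CO2, then exposed to DMSO-dissolved Tox21 10K compounds for 16 h at 37C. A LiveBLAzer B/G FRET substrate was loaded for 2 h at room temperature before fluorescence reading.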"}, "[7]": {"target": "Vitamin D3 receptor (Homo sapiens) (UniProt P11473)", "sequence (P11473 whole entry, looked up)": "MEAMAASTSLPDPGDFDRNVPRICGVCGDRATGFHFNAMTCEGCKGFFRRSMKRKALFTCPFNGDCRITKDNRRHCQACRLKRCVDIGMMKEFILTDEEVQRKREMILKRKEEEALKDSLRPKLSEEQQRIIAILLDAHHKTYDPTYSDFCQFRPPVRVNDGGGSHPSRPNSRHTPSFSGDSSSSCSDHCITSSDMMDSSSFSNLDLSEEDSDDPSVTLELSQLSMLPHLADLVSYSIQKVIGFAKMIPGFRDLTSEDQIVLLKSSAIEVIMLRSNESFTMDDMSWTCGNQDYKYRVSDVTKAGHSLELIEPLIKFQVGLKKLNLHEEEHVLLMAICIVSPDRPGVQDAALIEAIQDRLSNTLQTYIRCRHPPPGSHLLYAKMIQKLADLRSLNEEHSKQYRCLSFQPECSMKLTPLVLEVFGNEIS", "assay": "qHTS assay to identify small molecule antagonists of the vitamin D receptor (VDR) signaling pathway (AID 743223; active = well fitted inhibition curve with a large enough effect in the signal ratio in the repeat runs, not every such curve was filed as active; inconclusive = weak or mixed curves, or effect the other way; inactive = no such curve, though single readings can be large or run the other way; the % refers to the signal ratio; also: % is scaled to controls: 0 for no effect and ±100 for the full control effect)", "settings": "VDR-UAS-bla HEK293T, beta-lactamase FRET ratio, 16 h; activity change, negative = inhibition: at 61 µM (top of the series) unless noted", "outline": "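After VDR-bla cells are plated and left 4 h at 37C, DMSO-dissolved compounds and 3 nM (final) calcitriol agonist are added. Incubation continues 16 h at 37C; FRET beta-lactamase substrate then develops 2 h at room temperature.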"}, "[8]": {"target": "Peroxisome proliferator-activated receptor delta (Homo sapiens) (UniProt Q03181)", "sequence (Q03181 whole entry, looked up)": "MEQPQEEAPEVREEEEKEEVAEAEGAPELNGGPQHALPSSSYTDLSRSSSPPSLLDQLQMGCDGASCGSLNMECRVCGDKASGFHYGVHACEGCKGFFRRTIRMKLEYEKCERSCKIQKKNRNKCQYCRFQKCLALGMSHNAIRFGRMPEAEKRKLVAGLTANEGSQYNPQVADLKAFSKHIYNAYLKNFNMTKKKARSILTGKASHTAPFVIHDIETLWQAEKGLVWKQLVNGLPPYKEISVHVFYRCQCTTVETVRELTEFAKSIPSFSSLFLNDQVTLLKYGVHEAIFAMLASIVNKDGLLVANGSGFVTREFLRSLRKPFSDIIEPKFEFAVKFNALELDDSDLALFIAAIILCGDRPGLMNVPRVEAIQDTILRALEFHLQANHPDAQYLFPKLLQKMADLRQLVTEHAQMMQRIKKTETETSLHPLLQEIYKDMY", "assay": "qHTS assay to identify small molecule agonists of the peroxisome proliferator-activated receptor delta (PPARd) signaling pathway (AID 743212); also: potency is read from the fitted curve at half-maximal effect", "settings": "HEK293H PPARd-UAS-bla, beta-lactamase FRET ratio, 17 h; activation: at 62.6 µM (top of the series) unless noted", "outline": "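Beta-lactamase reporter read by fluorescence (LiveBLAzer B/G FRET, 2 h, room temperature). Test agents, in DMSO, incubated at 37 C with PPARd-bla HEK293H cells.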"}, "[9]": {"target": "Vitamin D3 receptor (Homo sapiens) (UniProt P11473)", "assay": "qHTS assay to identify small molecule agonists of the vitamin D receptor (VDR) signaling pathway (AID 743222); also: potency is read from the fitted curve at half-maximal effect", "settings": "HEK293T VDR-UAS-bla, beta-lactamase FRET ratio, 16 h; activation: at 63.5 µM (top of the series) unless noted", "outline": "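Fluorescence from cleaved LiveBLAzer B/G FRET substrate served as readout. VDR-bla cells had been treated 16 h at 37C with test compounds in DMSO, following a 4 h settling period, and substrate was loaded for 2 h at RT.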"}, "[10]": {"assay": "qHTS assay to identify small molecule agonists of the peroxisome proliferator-activated receptor delta (PPARd) signaling pathway - cell viability counter screen (AID 743211; active = well fitted curve in the direction sought with a large enough effect in the repeat runs; inconclusive = weak or mixed curves; inactive = no such curve, though single readings can be large; an effect the other way counts as inactive or inconclusive; also: potency is read from the fitted curve at half-maximal effect; nearly all actives have a fitted effect of over 55% in size)", "settings": "PPARd-bla HEK293H viability, CellTiter-Glo luminescence, 17 h; activity change, negative = cytotoxicity: at 62.6 µM (top of the series) unless noted", "outline": "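Multiplexed format: after the 2 h room-temperature LiveBLAzer B/G FRET step, CellTiter-Glo was added to the same wells. Luminescence after 30 min gave cell viability; compound exposure was 17 h at 37C.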"}, "[11]": {"target": "Peroxisome proliferator-activated receptor delta (Homo sapiens) (UniProt Q03181)", "assay": "qHTS assay to identify small molecule antagonists of the peroxisome proliferator-activated receptor delta (PPARd) signaling pathway (AID 743215; active = well fitted inhibition curve with a large enough effect in the signal ratio in the repeat runs, not every such curve was filed as active; inconclusive = weak or mixed curves, or effect the other way; inactive = no such curve, though single readings can be large or run the other way; the % refers to the signal ratio; also: potency is read from the fitted curve at half-maximal effect)", "settings": "HEK293H PPARd-UAS-bla, beta-lactamase FRET ratio, antagonist, 17 h; ratio activity, negative = inhibition: at 62 µM (top of the series) unless noted", "outline": "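Plated HEK293H PPARd-bla cells rested 5 h at 37 C and 5% CO2. Compound, then agonist L165041 at 300 nM final, was added; 17 h at 37 C followed. Substrate loading, 2 h room temperature, fluorescence measured.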"}, "[12]": {"assay": "qHTS assay to identify small molecule agonists of the farnesoid-X-receptor (FXR) signaling pathway - cell viability counter screen (AID 743218; active = well fitted curve in the direction sought with a large enough effect in the repeat runs; inconclusive = weak or mixed curves; inactive = no such curve, though single readings can be large; an effect the other way counts as inactive or inconclusive; also: potency is read from the fitted curve at half-maximal effect; nearly all actives have a fitted effect of over 45% in size)", "settings": "FXR-bla HEK293T viability, CellTiter-Glo luminescence, 16 h; viability change, negative = cytotoxic: at 62.6 µM (top of the series) unless noted", "outline": "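Viability of FXR-bla HEK 293T cells is measured by ATP-based CellTiter-Glo luminescence following 16 h compound treatment at 37 C and a prior 2 h room-temperature beta-lactamase substrate step.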"}, "[13]": {"assay": "qHTS assay to identify small molecule antagonists of the farnesoid-X-receptor (FXR) signaling pathway - cell viability counter screen (AID 743221; active = well fitted cell-killing curve with a large enough effect in the repeat runs, not every such curve was filed as active; inconclusive = weak or mixed curves, or effect the other way; inactive = no such curve, though single readings can be large or run the other way; also: % is scaled to controls: 0 for no effect and ±100 for the full control effect; nearly all actives have a fitted effect of over 50% in size)", "settings": "FXR-bla HEK293T viability, CellTiter-Glo luminescence, 16 h; activity change, negative = cytotoxicity: at 62.6 µM (top of the series) unless noted", "outline": "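CellTiter-Glo, 30 min RT, luminescence; same wells as the LiveBLAzer FRET read. Cells: FXR-UAS-bla HEK 293T. Treatment: compound with chenodeoxycholic acid 50 uM final, 16 h at 37 C.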"}, "[14]": {"assay": "qHTS assay to identify small molecule agonists of the vitamin D receptor (VDR) signaling pathway - cell viability counter screen (AID 743224; active = well fitted curve in the direction sought with a large enough effect in the repeat runs; inconclusive = weak or mixed curves; inactive = no such curve, though single readings can be large; an effect the other way counts as inactive or inconclusive; also: potency is read from the fitted curve at half-maximal effect; nearly all actives have a fitted effect of over 50% in size)", "settings": "VDR-bla HEK293T viability, CellTiter-Glo luminescence, 16 h; activity change, negative = cytotoxicity: at 62.6 µM (top of the series)", "outline": "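Compounds were pin-transferred onto VDR-bla cells plated 4 h earlier; following 16 h incubation at 37C, cell viability was quantified by CellTiter-Glo luminescence after 30 min at room temperature.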"}, "[15]": {"target": "Bile acid receptor (Homo sapiens) (UniProt Q96RI1)", "assay": "qHTS assay to identify small molecule antagonists of the farnesoid-X-receptor (FXR) signaling pathway (AID 743217; active = well fitted inhibition curve with a large enough effect in the signal ratio in the repeat runs, not every such curve was filed as active; inconclusive = weak or mixed curves, or effect the other way; inactive = no such curve, though single readings can be large or run the other way; the % refers to the signal ratio; also: % is scaled to controls: 0 for no effect and ±100 for the full control effect)", "settings": "HEK293T FXR-UAS-bla, beta-lactamase ratio, CDCA-stimulated, 16 h; activity change, negative = inhibition: at 62.6 µM (top of the series) unless noted", "outline": "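Screen of the Tox21 10K library in quantitative HTS format using FXR-UAS-bla HEK 293T reporter cells. Agonist chenodeoxycholic acid, 50 uM final, added with compounds; 16 h incubation at 37 °C; beta-lactamase FRET fluorescence measured.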"}}, "note": "Inconclusive results, whose numbers are uncertain, are shown with a selection of clear calls. For part of these data: Potencies beside an inconclusive call are fits to weak or partial responses and may not hold up. Activity calls are given as the source filed them. Unless noted, calls follow the shape of the full dose curve. Tags tell the direction and shape of the fitted curve or compound fluorescence and quenching.", "data": [{"molecule": "C/C=C/C=C/COC(=O)C(C)C", "values": [{"measurement": "activation", "setting": "[1]", "result": "inconclusive: 5.64%"}, {"measurement": "Potency", "setting": "[2]", "result": "inconclusive: 43.6 µM [rising, partial curve, poor fit]"}, {"measurement": "Potency", "setting": "[3]", "result": "active: 61.1 µM"}, {"measurement": "Potency", "setting": "[4]", "result": "inconclusive: 54.9 µM [cytotoxic, single point]"}, {"measurement": "Potency", "setting": "[5]", "result": "inconclusive: 61.6 µM"}, {"measurement": "activation", "setting": "[6]", "result": "inconclusive: 2.7%"}, {"measurement": "Potency", "setting": "[7]", "result": "inactive"}]}, {"molecule": "CCOc1cc(OCC)c(C(=O)CCC(=O)O)cc1OCC", "values": [{"measurement": "Potency", "setting": "[1]", "result": "inconclusive: 21.3 µM [activator, partial curve]"}, {"measurement": "ratio activity, negative = inhibition", "setting": "[2]", "result": "inconclusive: 1.2%"}, {"measurement": "Potency", "setting": "[3]", "result": "inconclusive: 11.9 µM"}, {"measurement": "Potency", "setting": "[4]", "result": "inactive"}, {"measurement": "Potency", "setting": "[8]", "result": "inconclusive: 16.8 µM [rising, partial curve, poor fit]"}, {"measurement": "Potency", "setting": "[9]", "result": "inconclusive: 11.9 µM [fluorescent, partial curve]"}, {"measurement": "activity change, negative = inhibition", "setting": "[7]", "result": "inconclusive: 4.6%"}]}, {"molecule": "c1ccc(C(O[C@@H]2CCCN(CCc3ccc4c(c3)OCO4)C2)c2ccccc2)cc1", "values": [{"measurement": "activation", "setting": "[1]", "result": "inconclusive: -13.3%"}, {"measurement": "Potency", "setting": "[2]", "result": "inconclusive: 49 µM [activator, partial curve, poor fit]"}, {"measurement": "Potency", "setting": "[3]", "result": "inconclusive: 61.1 µM [falling, partial curve]"}, {"measurement": "Potency", "setting": "[5]", "result": "inconclusive: 43.6 µM"}, {"measurement": "Potency", "setting": "[10]", "result": "inconclusive: 49 µM [cytotoxic, partial curve, poor fit]"}, {"measurement": "ratio activity, negative = inhibition", "setting": "[11]", "result": "inconclusive: -36.5%"}, {"measurement": "Potency", "setting": "[12]", "result": "inconclusive: 54.9 µM [cytotoxic, single point]"}]}, {"molecule": "CC(C)=CCC1C(=O)N(c2ccccc2)N(c2ccccc2)C1=O", "values": [{"measurement": "activation", "setting": "[1]", "result": "inconclusive: -20.7%"}, {"measurement": "Potency", "setting": "[2]", "result": "active: 4.22 µM"}, {"measurement": "Potency", "setting": "[3]", "result": "active: 1.88 µM"}, {"measurement": "Potency", "setting": "[5]", "result": "active: 28.7 µM"}, {"measurement": "Potency", "setting": "[8]", "result": "inconclusive: 21.1 µM [rising, partial curve]"}, {"measurement": "ratio activity, negative = inhibition", "setting": "[11]", "result": "inconclusive: -36.4% [inhibitor]"}, {"measurement": "Potency", "setting": "[13]", "result": "inactive"}]}, {"molecule": "O=C(CC(=O)c1ccccc1)c1ccccc1", "values": [{"measurement": "Potency", "setting": "[1]", "result": "inactive"}, {"measurement": "ratio activity, negative = inhibition", "setting": "[2]", "result": "inconclusive: -1.72% [at 81.1 µM]"}, {"measurement": "Potency", "setting": "[3]", "result": "active: 23.3 µM"}, {"measurement": "Potency", "setting": "[5]", "result": "inactive"}, {"measurement": "Potency", "setting": "[11]", "result": "inactive"}, {"measurement": "Potency", "setting": "[14]", "result": "inconclusive: 66.2 µM [cytotoxic, single point]"}]}, {"molecule": "CC(C)(C)C(=O)OCOC(=O)C1N2C(=O)CC2S(=O)(=O)C1(C)C", "note": "(configuration not stated)", "values": [{"measurement": "Potency", "setting": "[1]", "result": "inconclusive: 1.34 µM [inhibitor, full curve]"}, {"measurement": "Potency", "setting": "[2]", "result": "inconclusive: 7.5 µM [rising, full curve, poor fit]"}, {"measurement": "Potency", "setting": "[3]", "result": "inconclusive: 1.33 µM [full curve]"}, {"measurement": "activation", "setting": "[5]", "result": "inconclusive: -1.32%"}, {"measurement": "Potency", "setting": "[10]", "result": "inconclusive: 6.68 µM [cytotoxic, single point]"}, {"measurement": "Potency", "setting": "[11]", "result": "active: 2.11 µM"}, {"measurement": "activity change, negative = inhibition", "setting": "[15]", "result": "inconclusive: -23.2%"}, {"measurement": "activation", "setting": "[9]", "result": "inconclusive: -12.7%"}]}]}
